From the supplement of paper PMC3334620
Over roughly 33,000 sequences, “E-score (-0.5 to 0.5)” has its median near -0.012; the highest 2% begin near 0.27. This is one part of the list.

target: T1, Vhr1 (UniProt P40522); assay: PBM E-score (8-mer binding enrichment) (E-score (-0.5 to 0.5)); higher = stronger / more preferred TF binding; most listed sequences are background and not binding sites; details: protein concentration: 200 nM; construct: GST-full length
T1 sequence: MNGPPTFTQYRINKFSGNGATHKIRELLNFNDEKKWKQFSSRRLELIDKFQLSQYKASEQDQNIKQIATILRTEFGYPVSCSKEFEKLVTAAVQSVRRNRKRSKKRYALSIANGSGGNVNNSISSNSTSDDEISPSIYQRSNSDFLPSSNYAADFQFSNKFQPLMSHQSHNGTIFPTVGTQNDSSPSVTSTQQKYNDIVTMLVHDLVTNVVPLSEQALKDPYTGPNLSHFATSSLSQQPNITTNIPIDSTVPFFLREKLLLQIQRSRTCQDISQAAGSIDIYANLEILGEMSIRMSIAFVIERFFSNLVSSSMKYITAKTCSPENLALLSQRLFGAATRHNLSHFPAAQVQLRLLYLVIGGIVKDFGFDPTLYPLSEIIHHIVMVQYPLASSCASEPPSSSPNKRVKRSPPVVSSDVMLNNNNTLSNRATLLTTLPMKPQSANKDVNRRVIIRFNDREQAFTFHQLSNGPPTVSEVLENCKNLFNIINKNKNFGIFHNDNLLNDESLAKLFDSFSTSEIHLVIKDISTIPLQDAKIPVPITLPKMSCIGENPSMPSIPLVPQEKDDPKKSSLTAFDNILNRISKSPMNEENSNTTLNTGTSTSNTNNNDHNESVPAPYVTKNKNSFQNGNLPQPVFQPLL
How it was run: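 Each ungapped eight-base word and its reverse complement, pooled, received an E-score from the Universal PBM Analysis Suite. Underlying scans, normalised with masliner, recorded fluorescent anti-GST bound to GST-tagged yeast transcription factors. These were applied at about 100-200 nM to universal all-10-mer Agilent arrays double-stranded by primer extension.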

| Sequence | PBM E-score |
| --- | --- |
| CACGTCCA | -0.107 |
| AGACCTGA | -0.0508 |
| ATCGCGCA | -0.0739 |
| GAACACAA | -0.00229 |
| GTCATCAC | 0.229 |
| GCCTCTCC | -0.0997 |
| AATATTAG | 0.135 |
| ATGCTGAA | 0.0202 |
| AAGCCATC | 0.0852 |
| ACAGTAGG | 0.075 |
| AGCGCACG | -0.0655 |
| ATTCAGTG | 0.0826 |
| AGACTATC | -0.0494 |
| TAGGGAGA | 0.0563 |
| AGGCGTGC | -0.0791 |
| GAGGGAGC | -0.215 |
| CCGGCGAG | 0.144 |
| AGGTTTAA | -0.0358 |
| CGTCAGTA | 0.02 |
| AAAACGAG | -0.281 |
| ATCCCCTG | -0.0897 |
| ACTGCTTG | -0.051 |
| ACTACAGA | 0.185 |
| TGATATAA | -0.163 |
| ACTTCCAT | -0.079 |

| Sequence | PBM E-score |
| --- | --- |
| GGGTCCTA | -0.0725 |
| CATTGACC | 0.0487 |
| CGACAACA | 0.128 |
| ATTTTCCA | -0.191 |
| GGTCGCAC | 0.0284 |
| CTTCATAA | 0.0573 |
| CCACTAGG | -0.0941 |
| AATACCGC | 0.191 |
| TGCCCGAA | -0.112 |
| GAGAAGCC | -0.184 |
| ACGCCTTA | -0.13 |
| GTATCCGA | 0.0575 |
| CCACGGAA | -0.0432 |
| GAAGTCGC | 0.0553 |
| GAGCTACC | -0.0728 |
| GCTGTGCC | 0.0888 |
| CCAATAAG | -0.27 |
| AGTTCGAA | -0.0122 |
| CTTCGGTA | -0.205 |
| GCCTCTTA | -0.0439 |
| GTAACAAA | 0.0465 |
| CACTGACC | 0.0246 |
| CTCTCAAC | 0.00283 |
| AGAGGATG | -0.106 |
| AACACAGG | 0.0235 |

| Sequence | PBM E-score |
| --- | --- |
| ACCTCACG | -0.0286 |
| CTAATGCC | -0.0404 |
| GGTATCGA | 0.19 |
| CGTGAACC | -0.0372 |
| ACCGTATC | 0.152 |
| CATATAAG | -0.0564 |
| CGATTACC | 0.0034 |
| AGGCTAAG | -0.166 |
| AGACAAAT | -0.0582 |
| CTTCGCTA | -0.115 |
| TCAGAGAA | 0.102 |
| ACCTGTCG | -0.0197 |
| CGTCGAAG | 0.0798 |
| CGTCCATC | 0.0356 |
| CGAAGATC | -0.173 |
| AGTGGTAA | -0.0324 |
| ATTGAGAA | 0.113 |
| ACCGTCGA | 0.029 |
| GGCGTAAA | -0.148 |
| TGGGCCCA | 0.0911 |
| TAACCAAA | 0.0519 |
| AAAAGGCT | -0.159 |
| ACTAGGTA | 0.113 |
| CCGACATA | 0.026 |
| TGACTAAA | 0.326 |

| Sequence | PBM E-score |
| --- | --- |
| CTAAATAC | 0.123 |
| CTTGATGA | 0.128 |
| CAGCCACG | 0.124 |
| ACAAGGCA | -0.0614 |
| ACTACCTG | 0.153 |
| GAGTGGCA | 0.0236 |
| AGTCTCAA | 0.0459 |
| GTACACAC | 0.261 |
| AGAAATCC | -0.269 |
| AGGGATTA | -0.0221 |
| AATCCGTC | -0.00624 |
| CGAAGAAG | -0.123 |
| ACCCAAGC | -0.0655 |
| GAACGGGA | -0.0922 |
| CCTGAGCA | -0.0163 |
| ACTACCAC | 0.175 |
| CCTTGGAA | -0.115 |
| GTGGCGGA | 0.0432 |
| AGGATACA | -0.0569 |
| AAACTCTT | -0.163 |
| GACAAGGA | -0.105 |
| CTAGTGCC | -0.21 |
| AAGACATT | -0.164 |
| GATCGGTA | 0.15 |
| ACGATCTG | -0.125 |

| Sequence | PBM E-score |
| --- | --- |
| AGCAGGGC | -0.00534 |
| GCACCGCC | 0.183 |
| GCATGAAA | 0.0196 |
| CGCCCTGA | 0.106 |
| CTGGTATC | 0.0298 |
| GAGCTCCA | -0.103 |
| ATAATTAA | 0.207 |
| AGCATCAC | 0.0243 |
| ACAAGTGT | -0.161 |
| ACATGGAG | 0.119 |
| CTCAGGAC | 0.0961 |
| AACTACAT | 0.0803 |
| ACTTCTAT | -0.0176 |
| CCTCCAGG | -0.112 |
| CACAAACC | -0.135 |
| ATGCACGA | 0.0181 |
| GCCAAAAA | -0.0978 |
| ATAAACAC | 0.0527 |
| CGCCGATC | -0.0351 |
| TGGGACAA | -0.0041 |
| ACGAACAG | -0.0287 |
| ACATTCCT | -0.0361 |
| CATCTCTA | -0.00287 |
| AAGAACCG | 0.0666 |
| GACCGCAA | 0.141 |

| Sequence | PBM E-score |
| --- | --- |
| GCGGTTCA | 0.14 |
| GCAACCTA | 0.0732 |
| CCCCCAAG | -0.103 |
| AGCCGAAC | -0.0851 |
| CCAGCACG | -0.127 |
| GGCCTTGA | -0.117 |
| TCTTTCAA | -0.187 |
| CTTTGACC | -0.0122 |
| ACGTACCA | -0.0801 |
| AATCTCTC | -0.0867 |
| GCATCGGA | -0.0197 |
| CGGATTCA | 0.0469 |
| GCTGAGGA | -0.274 |
| ACGGTTAG | -0.104 |
| TAACAGCA | 0.0822 |
| AGGAATGC | 0.00488 |
| AATCCGAG | 0.117 |
| AACAGCAC | 0.108 |
| ATAGCAGC | -0.207 |
| AAATAAGT | -0.188 |
| ACCCTAGC | -0.0939 |
| ATACATAC | 0.293 |
| GTAGTGGA | -0.0367 |
| ACCACTCG | 0.149 |
| CCCTCCTC | 0.028 |

| Sequence | PBM E-score |
| --- | --- |
| AGTCTTTG | -0.141 |
| CCCAGTGC | 0.117 |
| GATCGAAC | -0.132 |
| CAAGTTTA | -0.0781 |
| GCGGTTAC | 0.057 |
| GTTTAGTA | -0.165 |
| AAGCTCTG | -0.235 |
| CTAAGCAA | -0.233 |
| ACGAATTG | -0.174 |
| GTTTTGCA | -0.19 |
| AGTTTCTG | -0.0524 |
| GAGCTTCA | -0.109 |
| CGAACGAA | 0.0543 |
| AGCTCTCA | -0.16 |
| ACAAACAA | -0.0374 |
| CTGCATCC | -0.157 |
| ATATATTC | 0.162 |
| CAGTCATC | 0.419 |
| CCACCTGC | -0.0231 |
| CCTTTCTC | -0.11 |
| CGTACCGA | 0.0431 |
| TAGGTCAA | 0.0181 |
